Measurements: the supplement of paper PMC3334620
In all, about 33,000 sequences were measured (“E-score (-0.5 to 0.5)”: median about -0.032, highest 2% from about 0.36 on). The list shows a part of the results.

target: T1, Sko1 (UniProt Q02100); experiment: PBM E-score (8-mer binding enrichment) (E-score (-0.5 to 0.5)); higher = stronger / more preferred TF binding; most listed sequences are background and not binding sites; conditions: protein concentration: 200 nM; construct: GST-full length
T1 sequence: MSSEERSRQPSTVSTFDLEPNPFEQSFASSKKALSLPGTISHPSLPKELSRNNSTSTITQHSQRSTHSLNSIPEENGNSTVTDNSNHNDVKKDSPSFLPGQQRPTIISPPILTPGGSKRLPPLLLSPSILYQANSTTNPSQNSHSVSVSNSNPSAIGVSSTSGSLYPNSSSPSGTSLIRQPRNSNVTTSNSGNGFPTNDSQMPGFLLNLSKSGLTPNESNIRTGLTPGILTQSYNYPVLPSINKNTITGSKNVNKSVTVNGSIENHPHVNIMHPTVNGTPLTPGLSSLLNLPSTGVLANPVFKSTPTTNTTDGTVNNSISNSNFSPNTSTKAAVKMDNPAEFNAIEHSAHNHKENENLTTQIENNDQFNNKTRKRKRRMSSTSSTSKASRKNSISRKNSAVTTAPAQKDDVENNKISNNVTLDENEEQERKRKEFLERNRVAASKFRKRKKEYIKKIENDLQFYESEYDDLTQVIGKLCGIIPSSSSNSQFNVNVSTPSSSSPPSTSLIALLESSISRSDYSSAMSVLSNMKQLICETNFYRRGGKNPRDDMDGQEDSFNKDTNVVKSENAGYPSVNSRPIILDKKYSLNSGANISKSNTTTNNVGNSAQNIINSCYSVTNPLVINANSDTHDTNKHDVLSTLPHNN
Summary of the method: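 For each ungapped eight-base word taken together with its reverse complement, the Universal PBM Analysis Suite assigned an E-score. Binding data came from GST-tagged yeast transcription factors, applied at about 100-200 nM, on universal all-10-mer Agilent arrays made double-stranded by primer extension. Fluorescent anti-GST marked bound protein, and scans were normalised with masliner.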

Sequence | PBM E-score
AAATAGGA | 0.158
AACTGCTG | -0.249
AGAGGGTA | -0.035
CGCAGCCG | -0.0841
CACTGACG | 0.424
GATAATTA | 0.284
CGCTCAAA | -0.0492
CCCCGGAG | -0.191
GTCACAAA | 0.177
AATTCTCT | -0.0731
CAGTTTGA | -0.00061
ACACCTGT | -0.164
GCCGCTCC | -0.396
AAGGCGCT | -0.16
CGCTGCAA | 0.0869
TATAAACA | 0.196
CGCTGACG | 0.389
TATGTGCA | 0.0602
ACGAAACA | 0.284
AAATTAAA | 0.219
GTCTCCGA | -0.278
ACTGGCCA | -0.0192
AATCTGCC | -0.0515
GTCTGCCA | -0.00797
GTACCCTA | 0.0237

Sequence | PBM E-score
AACGTCTT | 0.328
GCATCAGA | 0.113
CGTTTAAC | 0.228
ACTAAACT | 0.133
AATTGGCT | -0.0735
ATGACAAA | 0.154
CGAGCTAG | -0.165
AAGCCACC | -0.375
CCTGAGAG | -0.265
ACCCGTTC | -0.183
AACCGCAT | 0.0182
ATCGCGAC | -0.0742
AGTTCGCA | 0.111
CCCAACGG | -0.346
ATCTAACC | 0.0767
AGAGGACA | -0.169
CGAAGGCG | -0.141
GTGTCATA | 0.298
GACAGGCC | -0.29
CGAAAGGC | -0.158
GCGGCAGA | -0.253
AAAATTGA | 0.109
AGTTTGCC | -0.13
TGGTCTAA | -0.155
CTACTGTA | 0.0799

Sequence | PBM E-score
CCCTACCA | -0.0655
CGCCGGTC | -0.213
CCGAGCCC | -0.297
ATAGTTAA | 0.129
GACAGCTC | -0.209
GAAAGGAC | 0.0992
GTTGAGCA | 0.0589
GATTGTGA | -0.0468
CGAAGCGC | -0.00893
TACTCTCA | -0.00676
GGGACATA | -0.139
ATCTCATG | 0.0116
CCTTGTCG | -0.208
AGGGCTCC | -0.358
AACTCAAG | -0.0772
CGAAAGCG | -0.0459
AGTTGGTA | 0.284
GCGACCCC | -0.285
ACTTGGCG | -0.0916
AAGAATAG | 0.165
AATGGAAC | 0.0765
ACCAGAGC | -0.16
AAGGAGCT | -0.107
CTACATGC | 0.0435
GTCGTATA | 0.269

Sequence | PBM E-score
ATCTGGCA | -0.00449
CCAGACGA | -0.194
ACGGCAAG | -0.201
ACTTGGAA | -0.0891
AATGCCAC | -0.123
AAACTTCG | 0.143
AACAGACG | 0.0476
GCAAAGAC | 0.00382
ACATCGGC | 0.0116
GCATTCAC | 0.183
ACAATAGT | 0.107
AAGAATAA | 0.104
CTGATCAA | -0.104
CATCGGAG | -0.249
CTGCAAGC | -0.164
CCAGCAGA | -0.14
GAATAGAC | 0.0663
CCAAAAGG | -0.216
GTTGATCA | 0.28
CCTCAATC | 0.0718
ACATAATA | 0.339
GTGGGTGA | 0.00321
GAAACCGA | -0.244
ACTGATGA | 0.219
AATCTAGG | 0.0298

Sequence | PBM E-score
AGCGTGTA | 0.0949
ACAGTGTG | 0.0168
CAAAAGCG | -0.165
ACAAAACT | 0.073
GGAATTCA | -0.0525
CACGGGGG | -0.27
TGACCTCA | 0.216
CAATGCTG | -0.134
GGAGTACA | -0.16
CTTGGCAA | -0.048
CAGATCTG | -0.12
AATTAAGT | 0.146
AATTCAGA | 0.046
CGACAAAC | 0.00835
ACTGGAGC | -0.238
CGTCGTAC | 0.316
GGCACGAA | 0.0995
TCAAATAA | 0.136
ATTTCTCA | -0.0375
ATGGGTTC | -0.132
AGGGTATA | 0.0602
ACTGTAGA | 0.0113
CAGGTCGC | -0.262
CGGGGTAC | -0.214
CTCCTTTC | -0.146

Sequence | PBM E-score
CAGCGTAC | -0.108
AAGCTTTA | 0.0985
ACACTTCC | -0.107
GACCCAAC | -0.0945
CCAAGGCA | -0.287
ACCGTGTC | -0.238
GGGTCGAC | -0.147
CTCCGGCA | -0.0916
AATGTCGC | 0.0807
GGTCGCAA | -0.046
GCGGGGGA | -0.292
ATCACTTG | 0.0558
CCATCACC | -0.0201
ATATAGGA | 0.0623
GCCTATCA | -0.153
ATGTGATC | 0.214
CGTATAAA | 0.357
GCGATTGA | 0.0363
CTACGCGC | 0.0742
GCGGTGAC | 0.124
TAAGGCCA | -0.00406
TCTGCGAA | -0.017
CGAGCAAG | -0.129
ACAGTTCT | -0.157
ACGTGTCA | 0.378

Sequence | PBM E-score
CCACAAGC | -0.217
CAACGCCG | -0.142
ACTCAGTA | 0.0665
GACTCAGC | -0.124
CTACTCAA | 0.156
AAGGCACC | -0.217
CCGTGTAA | -0.0449
GCGGGGCA | -0.341
CAGCTTTC | -0.0951
AACAGAAG | 0.00835
GACGACCC | -0.0915
GCATCTAC | 0.0103
CTGCTCTC | -0.0904
CGCCGTAC | -0.141
ACTCCGAG | -0.137
GAGGGTAA | -0.123
ACCTCGGG | -0.157
ACTCAATG | 0.151
GTTTTATA | 0.19
ACGATTCT | 0.128
ACAAAACC | 0.102
GACAGATC | -0.035
